Source: patent US20230220040A1 (KAHR MEDICAL, published 2023)

Experiments:
[1] = molecular target: T1, 41BB on HT1080-41BB cells (UniProt Q07011 24-255); experiment: flow cytometry, HT1080 41BB+ cells (negative control) incubated with His-tagged PD1-CD70 30 min on ice, detected with anti PD1-PE
T1 construct: whole, on cells; also called 4-1BB (CD137)
Method: (§1) The cells were incubated with different concentrations of His-tagged PD1-CD70 protein (SEQ ID NO: 5) for 30 minutes on ice, followed by immunostaining with anti-PD-1 antibody and flow cytometry analysis. GMFI values were used to create a binding curve graph with a GraphPad Prism software.
(§2) Methods—For expression assays, cells (0.5M cells/sample) were immune-stained with the indicated antibodies, followed by Flow cytometry analysis. For binding assays, cells were pre-incubated with human Fc blocker for 15 minutes on ice prior to incubation with different concentrations of His-tagged PD1-CD70 protein (SEQ ID NO: 5) for 30 minutes on ice, followed by immuno-staining against the “free” arm of the molecule, fixation and analysis by flow cytometry.

[2] = molecular target: T2, CD27 on cells (HT1080-CD27 cells; human T cells) (human, UniProt P26842 20-260); experiment: flow cytometry, HT1080-CD27 cells incubated with His-tagged PD1-CD70 30 min on ice, detected with anti PD1-PE; curve 'Specific binding (PD1-CD70)'
T2 construct: whole, on cells; also called CD27 receptor; HT1080-27
T2 sequence (looked up): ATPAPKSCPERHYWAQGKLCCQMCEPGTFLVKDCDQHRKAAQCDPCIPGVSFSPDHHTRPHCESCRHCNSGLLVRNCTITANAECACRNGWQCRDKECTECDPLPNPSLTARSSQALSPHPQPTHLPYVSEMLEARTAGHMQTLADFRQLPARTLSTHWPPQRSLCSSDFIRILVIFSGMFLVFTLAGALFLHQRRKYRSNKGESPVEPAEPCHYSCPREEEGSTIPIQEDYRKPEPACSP
Method: as §1, §2

[3] = molecular target: T3, PDL1 on DLD1-PDL1 cells (human, UniProt Q9NZQ7); experiment: flow cytometry, DLD1-PDL1+ cells incubated with His-tagged PD1-CD70 30 min on ice, detected with anti CD70-PE; curve 'Specific binding (PD1-CD70) to DLD1-PDL1+ cells'
T3 construct: whole, on cells
Method: The cells were incubated with different concentrations of His-tagged PD1-CD70 protein (SEQ ID NO: 5) for 30 minutes on ice, followed by immunostaining with anti-CD70 antibody and flow cytometry analysis. GMFI values were used to create a binding curve graph with a GraphPad Prism software.
as §2

T1 sequence (Q07011 24-255 limits assumed): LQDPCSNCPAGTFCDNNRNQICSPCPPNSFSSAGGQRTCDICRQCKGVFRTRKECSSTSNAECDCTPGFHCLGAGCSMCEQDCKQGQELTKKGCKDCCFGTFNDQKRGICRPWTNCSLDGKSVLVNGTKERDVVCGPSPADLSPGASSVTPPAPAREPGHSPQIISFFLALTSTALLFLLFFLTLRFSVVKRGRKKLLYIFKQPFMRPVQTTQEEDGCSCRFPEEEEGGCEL
T3 sequence (Q9NZQ7 19-290): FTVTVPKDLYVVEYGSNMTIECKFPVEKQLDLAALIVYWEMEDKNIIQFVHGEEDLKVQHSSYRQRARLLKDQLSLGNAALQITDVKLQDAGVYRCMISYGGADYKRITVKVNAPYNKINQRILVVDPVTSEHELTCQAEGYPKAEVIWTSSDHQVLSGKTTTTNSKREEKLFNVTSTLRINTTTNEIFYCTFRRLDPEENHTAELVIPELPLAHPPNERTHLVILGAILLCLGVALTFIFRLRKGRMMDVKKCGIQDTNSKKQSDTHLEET

binding result [1]: no binding (tested: 50 ug/ml)
EC50 (read off the curve) [2]: ~200 nM
EC50 (read off the curve) [3]: ~7 nM
B1: His-tagged PD1-CD70 fusion protein (SEQ ID NO: 5) (other)
chain: HHHHHHPGWF[no letters for about 150 residues]GQRFAQAQQQLPLESLGWDVAELQLNHTGPQQDPRLYWQGGPALGRSFLHGPELDKGQLRIHRDGIYMVHIQVTLAICSSTTASRHHPTTLAVGICSPASRSISLLRLSFHQGCTIASQRLTPLARGDTLCTNLTGTLLPSRNTDETFFGVQWVRP
notes: Produced in Expi293F cells and purified on a HisTrap column; Glycosylated; also called His-tag PD1-CD70 fusion protein; His-PD1-CD70
